# Source: PubChem BioAssay AID686978 (National Center for Advancing Translational Sciences (NCATS), 2013)
# Several values for one entry are separate records, joined by “and”; a condition that tells them apart may be missing. Equal entries are not always repeated. About 64,000 (15%) of roughly 420,000 compounds were called active. Inconclusive results, whose numbers are uncertain, are shown with a selection of clear calls. Calls come from the whole dose curve; as a rule, active = well fitted inhibition curve with a large enough effect; inconclusive = small, poorly fitted or top-dose-only effect; inactive = flat fitted curve, though single readings scatter. Potencies of inconclusive entries are doubtful fits and often do not repeat.
# Test: qHTS for Inhibitors of human tyrosyl-DNA phosphodiesterase 1 (TDP1): qHTS in cells in absence of CPT; note: nearly all actives have a fitted effect of over 55% in size
# Details: DT40 Tdp1-/- hTDP1 cells, no CPT, ATP luminescence, 48 h; activity change, negative = growth inhibition: at 46.2 µM (top of the series) unless noted
# Procedure, shortened: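 Cells were dispensed at 400 per well, compounds added by pin tool, plates incubated ≥48 hr at 37 °C, then CellTiter-Glo added for 30 min at room temperature before luminescence reading. Line: DT40 Tdp1-/- complemented with hTDP1; camptothecin omitted.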
# % is set by controls: 0 for no effect and ±100 for the full control effect; potency is the fitted concentration of half-maximal effect; tags give direction and shape of the fitted curve.
Structure (SMILES),Potency,"activity change, negative = growth inhibition"
Cc1cc(C)c2c(N)c(C(=O)c3ccc(Cl)cc3)sc2n1,"inconclusive: 10.3 µM [inhibitor, partial curve]",–
O=C(c1cc(-c2cccc3ccccc23)nc2ccccc12)N1CCN(CCO)CC1,"inconclusive: 20.6 µM [inhibitor, single point]",–
CCCOC(=O)C1=C(C)N(C)C(=O)NC1c1cc2c(cc1Br)OCO2 (stereo not drawn),inactive,–
N#CC1=C(SCC(=O)c2ccc(Cl)cc2)NC2=C(C(=O)CCC2)C1c1ccco1 (stereo not drawn),active: 5.8 µM,–
O=c1nccc(SCc2ccc(Cl)cc2Cl)[nH]1,"inconclusive: 16.4 µM [inhibitor, single point]",–
Cn1c(CNc2nc(-c3ccccc3)cs2)nnc1SCC(=O)N1CCc2ccccc21,"inconclusive: 23.1 µM [inhibitor, single point]",–
N#C/C(=C/c1ccc(N2CCCCC2)o1)C(=O)NCCc1c[nH]c2ccccc12,"inconclusive: 29.1 µM [inhibitor, single point]",–
Cc1ccc(S(=O)(=O)N2CCN(c3ncnc4scc(-c5ccc(F)cc5)c34)CC2)cc1,active: 14.6 µM,–
COc1ncccc1C(=O)N1CCCC(N2CCN(c3ccc(F)cc3)CC2)C1 (stereo not drawn),"inconclusive: 29.1 µM [inhibitor, single point]",–
O=c1[nH]c(=O)n(C2OC(CO)C(O)C2O)cc1Br (stereo not drawn),"inconclusive: 20.6 µM [inhibitor, single point]",–
CCS(=O)(=O)N1Cc2ccccc2CC1C(=O)Nc1nnc(SCc2ccc(C#N)cc2)s1 (stereo not drawn),"inconclusive: 16.4 µM [inhibitor, partial curve]",–
COc1ccc(-c2nnn(CC(=O)N(c3cccc(O)c3)C(C)C(=O)NC3CCCC3)n2)cc1OC (stereo not drawn),"inconclusive: 18.4 µM [inhibitor, single point]",–
CCOc1cc(C2NN=C(c3ccc(C)cc3)S2)ccc1O (stereo not drawn),active: 5.17 µM,–
C=C1C(=C/C=C2\CCC[C@]3(C)[C@@H]([C@H](C)/C=C/[C@H](C)C(C)C)CC[C@@H]23)C[C@@H](O)C[C@@H]1O,"inconclusive: 1.33 µM [inhibitor, full curve, poor fit]",–
COc1ccc(OC)c(Cc2nnc(CCC(=O)NC3C4CC5CC(C4)CC3C5)o2)c1 (stereo not drawn),"inconclusive: 11.6 µM [inhibitor, partial curve]",–
COCCOC(=O)c1c(C)n(S(=O)(=O)c2ccc(C)cc2)c2ccc(NS(=O)(=O)c3ccc(C)cc3)cc12,"inconclusive: 29.1 µM [inhibitor, single point]",–
COCCNc1nnc(SCC(=O)Nc2sc3c(c2C(=O)c2ccccc2)CCCC3)s1,"inconclusive: 29.1 µM [inhibitor, single point]",–
CCOc1ccccc1NC(=O)c1sc2nc3n(c(=O)c2c1C)CCCCC3,inactive,–
CCOC(=O)C1=CCC(c2ccccc2)N(S(=O)(=O)c2ccccc2[N+](=O)[O-])C1 (stereo not drawn),"inconclusive: 23.1 µM [inhibitor, single point]",–
CC(=O)c1ccc(N2CCN(S(=O)(=O)c3cccc4nsnc34)CC2)cc1,"inconclusive: 18.4 µM [inhibitor, single point]",–
O=c1[nH]c(-c2ccccc2)ncc1Oc1ccccc1,inactive,–
CCOC(=O)c1cc2c(=O)n3ccccc3nc2n(Cc2ccco2)c1=NC(=O)c1cccnc1,"inconclusive: 16.4 µM [inhibitor, single point]",–
O=C(NNc1cc(Cl)ccc1Cl)C1CCC1,"inconclusive: 18.4 µM [inhibitor, single point]",–

Structure (SMILES),Potency,"activity change, negative = growth inhibition"
Cc1ccc(CNC(=O)c2ccc3nc(N4CCCCC4)sc3c2)cc1,inactive,–
Fc1ccccc1NC(=S)N/N=C/c1ccccc1Br,"inconclusive: 29.1 µM [inhibitor, single point]",–
Cc1nc(C)c(-c2ccn(S(=O)(=O)c3ccc(Cl)cc3)n2)o1,"inconclusive: 18.4 µM [inhibitor, single point]",–
CCOc1ccc(CCNC(=O)c2ccc3c(Cl)c4c(nc3c2)CCCC4)cc1,active: 23.1 µM,–
O=C(CNC(=O)C1CCCCC1)NC1CCCCC1,inactive,–
CCOC(=O)c1ccc(NC(=O)c2c(NC(C)=O)sc3c2CCC(C)C3)cc1 (stereo not drawn),"inconclusive: 25.9 µM [inhibitor, single point]",–
O=C(CSc1nnc(COc2ccc(Cl)cc2)n1Cc1ccco1)c1ccccc1F,"inconclusive: 14.6 µM [inhibitor, partial curve]",–
CC(C)(C)c1ccc(C(=O)O/N=C(\N)Cc2cccs2)cc1,"inconclusive: 23.1 µM [inhibitor, single point]",–
Cc1cc(C)cc(N2C(=O)CSC23C(=O)N(CC(=O)NCCc2ccccc2)c2ccccc23)c1 (stereo not drawn),"inconclusive: 16.4 µM [inhibitor, partial curve]",–
OCC1OC(Oc2c[nH]c3ccccc23)C(O)C(O)C1O (stereo not drawn),inactive,–
O=C(c1ccc2c(c1)OCO2)N1CCN(C(=O)c2ccco2)CC1,inactive,–
O=C(CCc1nnc(C2CCCCC2)o1)N1CCCCC1CCn1cccn1 (stereo not drawn),–,inconclusive: -31.4% [inhibitor]
COc1cc(C(C)=O)ccc1OCC(O)Cn1nc(C)c(C(C)=O)c1C (stereo not drawn),inactive,–
Cn1c(=O)c2c(nc(NCC3CCCO3)n2Cc2ccccc2)n(C)c1=O (stereo not drawn),"inconclusive: 8.2 µM [inhibitor, partial curve]",–
Cc1ccc(NC(=O)c2cc(-c3cc(F)ccc3OCC3CCCO3)n[nH]2)cc1NS(C)(=O)=O (stereo not drawn),active: 14.6 µM,–
Cc1ccc(CSCc2ccc(C(=O)NCCc3ccc(Cl)cc3)o2)cc1,"inconclusive: 16.4 µM [inhibitor, single point]",–
COc1ccc(OCc2nnc(SC(C)C(=O)Nc3ccc(N4CCOCC4)cc3)n2C)cc1 (stereo not drawn),inactive,–
COc1ccc(/C=C/c2ccc(=O)n(Cc3ccccc3)n2)cc1,"inconclusive: 29.1 µM [inhibitor, single point]",–
CNC(=S)N(Cc1ccc(OC)cc1)Cc1cc2cccc(C)c2[nH]c1=O,active: 20.6 µM,–
CC(NC(=O)c1cc2ccccc2oc1=O)c1ccc(O)cc1 (stereo not drawn),"inconclusive: 25.9 µM [inhibitor, single point]",–
COc1ccc(NC(=O)CCS(=O)(=O)c2cccc3nonc23)cc1Cl,inactive,–
CCC(C(=O)NCc1ccco1)N(C(=O)CNS(=O)(=O)c1ccc(C)cc1)c1ccccc1F (stereo not drawn),"inconclusive: 20.6 µM [inhibitor, single point]",–
COCCN1C(=O)C(CC(=O)Nc2ccc(C(C)=O)cc2)SC1=Nc1ccccc1 (stereo not drawn),"inconclusive: 13 µM [inhibitor, partial curve] and inconclusive: 18.4 µM [inhibitor, single point]",–

Structure (SMILES),Potency,"activity change, negative = growth inhibition"
Cc1cccc(C)c1NC(=O)Cn1nc(-c2ccc(Cl)s2)ccc1=O,inactive,–
CCSc1nc2ccccc2n1Cc1cccc([N+](=O)[O-])c1,"inconclusive: 16.4 µM [inhibitor, partial curve]",–
Cn1c(N)c(N=O)c(=O)n(C)c1=S,–,inconclusive: -29% [inhibitor]
Cc1cccc(Cn2cnc3c(nnn3Cc3ccc(F)cc3)c2=O)c1,"inconclusive: 35.5 µM [inhibitor, single point]",–
CN(C(=O)c1ccc2c(c1)N(Cc1cccc(Cl)c1)C(=O)c1ccccc1S2=O)C1CCCCC1 (stereo not drawn),active: 23.1 µM,–
CC1(C)CC(=O)C=C(c2ccc(COC(=O)C(c3ccccc3)c3ccccc3)cc2)C1=O,"inconclusive: 25.9 µM [inhibitor, single point]",–
Cc1ccc(C(C(=O)NC2CCCCC2)N(CC2CCCO2)C(=O)CCCC(=O)Nc2ccccn2)cc1 (stereo not drawn),"inconclusive: 18.4 µM [inhibitor, single point]",–
COc1ccc(C(=O)COC(=O)c2ccc3c(c2)NC(=O)CS3)c(OC)c1,"inconclusive: 29.1 µM [inhibitor, single point]",–
CCC(=O)N1Cc2cc(C(=O)NCCOC)nc(-c3cccc(-c4ccc(C#N)cc4)c3)c2[C@H]1CCO,"inconclusive: 16.4 µM [inhibitor, single point]",–
CC(C)Oc1ccc(S(=O)(=O)N2CCOCC2)cc1NC(=O)CN1C(=O)c2ccccc2C1=O,inactive,–
Cc1oc2ncn(C)c(=O)c2c1C(=O)NC(C)c1ccccc1 (stereo not drawn),inactive,–
Cc1nc2c3cnn(-c4ccc(C)c(C)c4)c3ncn2n1,"inconclusive: 14.6 µM [inhibitor, partial curve, poor fit]",–
Cc1cccc(C(=O)O/N=C(/c2ccccc2)c2ccncc2)c1,"inconclusive: 25.9 µM [inhibitor, single point]",–
Cc1ccc(N2C(=O)CC(Sc3ccccc3C(=O)O)C2=O)c([N+](=O)[O-])c1 (stereo not drawn),–,inconclusive: -33.6% [inhibitor]
Cc1cc(C)c(S(=O)(=O)N2CCOCC2)cc1C,"inconclusive: 29.1 µM [inhibitor, single point]",–
COc1ccccc1NCc1cccn1-c1nnc(N2CCOCC2)s1,inactive,–
CNCc1ccccc1Sc1cccc2ccccc12,active: 23.1 µM,–
CCOc1ccccc1NC(=O)C(=O)NCCC1=CCCCC1,inactive,–
CCCC(=O)Nc1ccc(Cl)c(-c2nc3ncccc3o2)c1,inactive,–
CCOC(=O)C1(C)C=C(Nc2ccc(C)cc2)C(=O)N1c1ccc(C)cc1 (stereo not drawn),"inconclusive: 9.2 µM [inhibitor, partial curve]",–
Cc1ccc(C)c(CN2C(=O)CSc3ccc(C(=O)NCc4ccc(F)cc4)cc32)c1,"inconclusive: 18.4 µM [inhibitor, single point]",–
O=C(Oc1cccc2cccnc12)c1ccc(N2C(=O)C3C4CCC(C4)C3C2=O)cc1 (stereo not drawn),active: 1.03 µM,–
